Laboratory results: a compilation of properties of binary mixtures (doi:10.1021/acs.jced.0c00495)
The densities may have been worked out from excess volumes.

Experiment: xn = mol fraction of the nth substance listed
Conditions: 101.3 kPa

Nc1ccccc1 + CCCCCC[n+]1ccn(C)c1.F[B-](F)(F)F
x2 = 0
Conditions | mass density [kg/m3]
293.15 K | 1021.7
298.15 K | 1017.4
303.15 K | 1013
308.15 K | 1008.7

CCCCCC[n+]1ccn(C)c1.F[B-](F)(F)F + Nc1ccccc1
mass density [kg/m3]
Conditions | x1 = 0.0989 | x1 = 0.1792 | x1 = 0.2896 | x1 = 0.3924 | x1 = 0.5062 | x1 = 0.6042 | x1 = 0.6986 | x1 = 0.7974 | x1 = 0.8962
293.15 K | 1054.9 | – | 1095.3 | 1108.1 | 1119 | 1126.6 | – | – | 1143.5
298.15 K | 1051 | 1071.3 | 1091.6 | 1104.7 | – | – | 1129.4 | 1135.1 | 1140
303.15 K | – | 1067.6 | 1088 | 1101.3 | 1112.5 | 1120.1 | – | 1131.8 | 1136.6
308.15 K | 1043.2 | 1063.9 | 1084 | 1097.6 | 1108.8 | 1116.5 | 1122.5 | 1128.1 | 1133
313.15 K | – | 1060.2 | 1080.6 | 1094.3 | 1105.6 | 1113.6 | 1119.6 | 1125.2 | 1130
318.15 K | 1035.7 | 1056.6 | 1077.1 | 1090.8 | 1102.3 | – | – | 1122.2 | 1127
323.15 K | 1031.7 | – | 1073 | – | 1098.3 | 1106.5 | 1112.6 | 1118.3 | 1122.9

CCCCCCCCn1cc[n+](C)c1.F[B-](F)(F)F + Nc1ccccc1
mass density [kg/m3]
Conditions | x1 = 0.0996 | x1 = 0.1904 | x1 = 0.2853 | x1 = 0.3789 | x1 = 0.4955 | x1 = 0.5783 | x1 = 0.6966 | x1 = 0.7938 | x1 = 0.8958
293.15 K | 1047.4 | 1064.5 | 1077 | 1085.1 | 1091.6 | 1095.2 | 1099.5 | 1102.7 | –
298.15 K | – | – | 1073.7 | 1081.7 | 1088.3 | 1092 | 1096.2 | – | 1102.2
303.15 K | – | – | 1070.2 | 1078.4 | 1085 | 1088.7 | 1092.9 | 1096 | –
308.15 K | 1036.4 | – | 1066.7 | 1075 | 1081.8 | – | 1089.7 | 1092.7 | 1095.6
313.15 K | – | 1050.6 | 1063.2 | – | 1078.6 | 1082.3 | 1086.5 | 1089.5 | 1092.2
318.15 K | 1028.6 | 1046.7 | 1059.7 | – | 1075.1 | 1078.8 | 1082.9 | 1086 | 1088.8
323.15 K | – | – | 1056 | 1064.6 | 1071.5 | 1075.3 | 1079.4 | – | 1085.2
